# Experimental data: PubChem BioAssay AID1645882 (National Center for Advancing Translational Sciences (NCATS), 2021)
# Several values for one entry are separate records, joined by “and”; a condition that tells them apart may be missing. Equal values may be shown once. About 120 (0.75%) of roughly 16,000 compounds were called active. Inconclusive means that the source gave no clear call. Such entries were picked first, then a sample of the others. Calls follow the shape of the dose curve; as a rule, active = well fitted inhibition curve with a large enough effect; inconclusive = small, poorly fitted or top-dose-only effect; inactive = no such curve, though single readings can be large or run the other way. Potencies beside an inconclusive call are fits to weak or partial responses and may not hold up.
# Target: Rap guanine nucleotide exchange factor 3 (Homo sapiens) (UniProt O95398)
# UniProt O95398, sequence (O95398 whole entry, looked up): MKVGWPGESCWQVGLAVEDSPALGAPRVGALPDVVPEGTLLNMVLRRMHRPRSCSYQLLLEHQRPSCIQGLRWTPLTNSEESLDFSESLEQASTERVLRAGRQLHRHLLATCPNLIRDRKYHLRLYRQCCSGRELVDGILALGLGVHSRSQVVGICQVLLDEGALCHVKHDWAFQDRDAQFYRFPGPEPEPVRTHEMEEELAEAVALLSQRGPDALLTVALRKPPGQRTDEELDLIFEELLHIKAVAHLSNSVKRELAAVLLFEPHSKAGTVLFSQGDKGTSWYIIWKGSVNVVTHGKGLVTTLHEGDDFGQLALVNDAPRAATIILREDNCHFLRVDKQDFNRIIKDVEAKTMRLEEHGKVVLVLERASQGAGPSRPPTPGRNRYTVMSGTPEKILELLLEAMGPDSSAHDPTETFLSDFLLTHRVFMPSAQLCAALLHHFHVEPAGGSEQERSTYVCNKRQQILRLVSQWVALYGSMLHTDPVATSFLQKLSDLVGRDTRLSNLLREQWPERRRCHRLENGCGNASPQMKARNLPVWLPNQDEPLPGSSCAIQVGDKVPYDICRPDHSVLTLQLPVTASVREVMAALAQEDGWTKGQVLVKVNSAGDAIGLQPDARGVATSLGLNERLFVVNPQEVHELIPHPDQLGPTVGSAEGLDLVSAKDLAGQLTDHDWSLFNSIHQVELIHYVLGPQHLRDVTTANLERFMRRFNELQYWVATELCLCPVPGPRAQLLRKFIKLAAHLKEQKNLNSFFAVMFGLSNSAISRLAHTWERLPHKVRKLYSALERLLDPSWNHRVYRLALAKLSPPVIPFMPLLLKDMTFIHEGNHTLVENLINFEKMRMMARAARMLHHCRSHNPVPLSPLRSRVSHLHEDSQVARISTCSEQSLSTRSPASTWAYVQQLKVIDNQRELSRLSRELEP
# Assay: Validation qHTS for antagonist of cAMP-regulated guanine nucleotide exchange factor 3 (EPAC1); also: nearly all actives have a fitted effect of over 75% in size
# Settings: EPAC1 Rap1B-BODIPY-GDP exchange, fluorescence; series mostly up to 150 µM
# Outline: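 Nucleotide exchange followed as fluorescence loss when BODIPY-GDP leaves Rap1B (480 nm excitation, 540 nm emission), read at 5 min intervals over 30 min. Reaction: 100 nM EPAC1, 250 nM RAP1B-BODIPY-GDP, 50 uM GDP; ATA and DMSO define normalization.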
# Potency is read from the fitted curve at half-maximal effect; tags tell the direction and shape of the fitted curve.
row,SMILES,Potency
1,CCCCCCCCCCCC(=O)[O][Sn]([CH2]CCC)([CH2]CCC)[O]C(=O)CCCCCCCCCCC,"inconclusive: 126 µM [inhibitor, single point]"
2,COCC(=O)N1CCC2(CC1)CN(Cc1ccc(C#N)cc1)C2,"inconclusive: 112 µM [inhibitor, partial curve, poor fit]"
3,O=C1CCC[C@@H]2C[C@@]3(C[C@@H]4CCN1[C@H]24)Nc1cc([N+](=O)[O-])ccc1NC3=NCc1ccccc1,"inconclusive: 50.1 µM [inhibitor, partial curve, poor fit]"
4,C[C@@]12C(=O)OC(=O)[C@@]1(C)[C@@H]1CC[C@@H]2O1,"inconclusive: 5.62 µM [inhibitor, full curve, poor fit]"
5,CCCCC/C=C\C/C=C\CCCCCCCC(=O)O,"inconclusive: 126 µM [inhibitor, single point]"
6,CCCCCCCNS(=O)(=O)c1cccc2c(Cl)cccc12,"inconclusive: 31.6 µM [inhibitor, full curve]"
7,COc1ccccc1CCn1c(=O)cnc2cncnc21,inactive
8,CC(C)(C)CC(C)(C)N=C1Nc2ccc(Cl)cc2N[C@]12C[C@H]1CCCC(=O)N3CC[C@@H](C2)[C@@H]13,"inconclusive: 44.7 µM [inhibitor, partial curve]"
9,N#C/C(=C1/SC[C@@H](c2ccc(Cl)cc2Cl)S1)n1ccnc1,"inconclusive: 56.2 µM [inhibitor, partial curve, poor fit]"
10,CC1(C)S[C@@H]2[C@H](NC(=O)C(N)c3ccccc3)C(=O)N2[C@H]1C(=O)OC1OC(=O)c2ccccc21 (stereo partly specified),inactive
11,COc1cc(O)c2c(=O)cc(C)oc2c1CC=C(C)C,"inconclusive: 39.8 µM [inhibitor, full curve]"
12,COc1cc(CNC(=O)CCCC/C=C/C(C)C)ccc1O,"inconclusive: 31.6 µM [inhibitor, full curve]"
13,COC(=O)c1c(OC)cc2c(c1C)Oc1c(Cl)c(O)c(Cl)c(C)c1C(=O)O2,"inconclusive: 112 µM [inhibitor, single point]"
14,O=C1c2ccccc2C(=O)c2c(O)c(O)cc(O)c21,"inconclusive: 79.4 µM [inhibitor, partial curve]"
15,Cc1ccc(-c2cc(C(F)(F)F)nn2-c2ccc(S(N)(=O)=O)cc2)cc1,"inconclusive: 25.1 µM [inhibitor, full curve] and inconclusive: 70.8 µM [inhibitor, partial curve, poor fit]"
16,CN(C)C(=O)CCSC(SCCC(=O)O)c1cccc(/C=C/c2ccc3ccc(Cl)cc3n2)c1 (stereo unspecified),inactive
17,NC[C@H](O)c1ccc(O)c(O)c1,"inconclusive: 89.1 µM [inhibitor, partial curve]"
18,O=c1c(O)c(-c2ccc(O)cc2)oc2cc(O)cc(O)c12,inactive

row,SMILES,Potency
1,O=c1c(-c2ccccc2)nc2cncnc2n1Cc1ccccc1,inactive
2,CC(C)(C)CC(C)(C)N=C1Nc2ccc([N+](=O)[O-])cc2N[C@]12C[C@H]1CCCC(=O)N3CC[C@@H](C2)[C@@H]13,"inconclusive: 50.1 µM [inhibitor, partial curve, poor fit]"
3,CC(C)=CCc1c2c(c3occ(-c4ccc(O)c(O)c4)c(=O)c3c1O)C=CC(C)(C)O2,"inconclusive: 44.7 µM [inhibitor, full curve]"
4,CCCCCCCCN1[C@@H](CC(=O)OC)c2cc(F)ccc2S1(=O)=O,"inconclusive: 31.6 µM [inhibitor, partial curve]"
5,CCCCC(CC)CN=C(N)NC(N)=NCCCCCCN=C(N)NC(N)=NCC(CC)CCCC (stereo unspecified),"inconclusive: 89.1 µM [inhibitor, partial curve, poor fit]"
6,Cc1ccnc2ccc([N+](=O)[O-])cc12,"inconclusive: 14.1 µM [inhibitor, partial curve, poor fit]"
7,CN(C)c1cc(NC(=O)CNC(C)(C)C)c(O)c2c1C[C@@H]1C[C@H]3[C@H](N(C)C)C(=O)C(C(N)=O)=C(O)[C@@]3(O)C(=O)C1=C2O,"inconclusive: 79.4 µM [inhibitor, partial curve]"
8,CCCCCCCCCC[n+]1ccc(/C=C/c2c[nH]c3ccccc23)c2ccccc21,"inconclusive: 70.8 µM [inhibitor, partial curve]"
9,COc1cc(C)c(C(=O)Oc2cc(C)c(C(=O)O)c(O)c2C)c(OC)c1C,"inconclusive: 126 µM [inhibitor, single point]"
10,C/C=C\C[C@@H](C)[C@@H](O)[C@H]1C(=O)N[C@@H](CC)C(=O)N(C)CC(=O)N(C)[C@@H](CC(C)C)C(=O)N[C@@H](C(C)C)C(=O)N(C)[C@@H](CC(C)C)C(=O)N[C@@H](C)C(=O)N[C@H](C)C(=O)N(C)[C@@H](CC(C)C)C(=O)N(C)[C@@H](CC(C)C)C(=O)N(C)[C@@H](C(C)C)C(=O)N1C,"inconclusive: 28.2 µM [inhibitor, partial curve]"
11,C=CC(C)(C)c1c2c(c(O)c3c(=O)c4ccc(O)c(O)c4oc13)C=CC(C)(C)O2,"inconclusive: 70.8 µM [inhibitor, partial curve]"
12,COc1ccc2[nH]cc(CCNc3ccnc(-c4cccc(C#N)c4)n3)c2c1,"inconclusive: 126 µM [inhibitor, single point]"
13,CCCCCCC[n+]1ccc(/C=C/c2c[nH]c3ccccc23)c2ccccc21,"inconclusive: 89.1 µM [inhibitor, partial curve]"
14,CCCCCCCCCCCCCCCC[N+](C)(C)Cc1ccccc1,active: 112 µM
15,COc1ccc(CN([C@H](CO)CC(C)C)S(=O)(=O)N(Cc2ccccc2)[C@H](CO)CC(C)C)cc1,"inconclusive: 22.4 µM [inhibitor, full curve, poor fit]"
16,COc1ccc(NC(=O)N2CCC3(CC2)CCN(C(=O)c2cc(C(F)(F)F)cc(C(F)(F)F)c2)CC3)cc1,"inconclusive: 100 µM [inhibitor, single point]"
17,c1csc(CNc2ncncc2-c2ccoc2)c1,inactive
18,Oc1c(Cl)cc(Cl)c2cccnc12,inactive
